The list shows a part of the results.
System: PfAP2-HC AP2 domain (GST-tagged)
Test: gcPBM binding intensity (ln(normalized median fluorescence intensity)); higher = stronger DNA binding
Outline: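 Each value is the highest Masliner-normalised natural-log median intensity across replicate spots of either orientation of a probe. The probes were primer-extended double-stranded 36-bp intergenic genomic sequences on an Agilent 4 × 180k array, alongside negative controls, exposed for 1 h to GST-tagged P. falciparum DNA-binding domains expressed in E. coli. Bound protein was picked up with Alexa488 anti-GST antibody and scanned at 488 nm.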

Row | Sequence | gcPBM binding intensity (ln)
1 | TATTTTTTATGATTAACACACACACTAATAAAAAAA [CACACA_site9370] | 10.1
2 | TATATATATATATATAGTACGCACACATAGTTGCAA [XGTACX_site5875] | 9.84
3 | ATTCTTACTAATATCGCACACACATATGTAGACGGG [CACACA_site88] | 9.94
4 | AACAAGTTGCATGGTGCACACATGTATATATATCTA [CACACA_site2548] | 10.2
5 | AAAATGTATGTAGTCTGTACAAATACTCTATAAATA [XGTACX_site6475] | 9.67
6 | TACAATTTTACTCATAAACACACATATATATGTTAT [CACACA_site9031] | 9.86
7 | ACCCAGTGTATTCATAGTACACGCTCATATATTATC [XGTACX_site423] | 9.76
8 | AGGTTTATAAAAAAAAAAAAAAAAAAAAAAAAAAAA [GTGCAC_negctrl_site113] | 9.03
9 | AATATTTAAAACATATGTACTGAAAAACAATTGGAC [XGTACX_site6360] | 10.1
10 | CACAAAGGTCTGAAATTTTAGGGGTGCCTGGGACTA [CACACA_negctrl_site681] | 9.44
11 | TCATAAAAGATTAAGTGTACATGTGCTACTCTTATA [XGTACX_site6255] | 9.56
12 | AATATAAAATCAAGAAATTAAAAAAAAACAGAAAAC [CACACA_negctrl_site1004] | 9.78
13 | ACAAGATAATAGAGAAGTACTAATAAACATACACAA [XGTACX_site6617] | 9.98
14 | TATATATATATATGTGCACACCAATTGTATGTAATA [CACACA_site3888] | 9.94
15 | ATTTTAAATTTATCTGTGCACAGTATTATATAAGCA [GTGCAC_site9806] | 9.56
16 | TATGTTCCTTTTTGTTGTACTGAAAAATTATGTTCA [XGTACX_site3981] | 9.72
17 | ATAATATAAATTAATTTACACACTAATAAATATATA [CACACA_site9259] | 9.64
18 | TATTTATATTTATATACACACATACATATTTATATT [CACACA_site6535] | 9.93
19 | ATTGTGTTAATGAAATGTACATTTTCTCTACGTTAA [XGTACX_site1322] | 9.72
20 | AATATTATGTATAACCGTACATTATATATATAATAA [XGTACX_site1594] | 9.55
21 | TTAAACTTGTTTTGGATGCACTATATAATTCATTTT [GTGCAC_site9549] | 9.64
22 | ATTAAAATAATTTAATTTCTTAGACACAATTTGTAA [GTGCAC_negctrl_site331] | 9.31

Row | Sequence | gcPBM binding intensity (ln)
23 | GTGTAAAGGTATTATTGTATTATTCAAAATAAAAAA [CACACA_negctrl_site637] | 9.62
24 | TCCTACATATTATAGTGTACATTTTCATGTTCATAT [XGTACX_site4308] | 9.86
25 | AAGTATTATATATTTTGTACATATATAAAACCACAA [XGTACX_site5508] | 9.61
26 | TATTTTGTAATAATTACACACGGAATTATAACAGAA [CACACA_site2355] | 9.79
27 | TCTTAATTTGTTATATGTACATAATATAATTGTATA [XGTACX_site5184] | 9.55
28 | TTATATTAATAAAAAGAAAATCATTTTTTCTTTTAT [CACACA_negctrl_site1595] | 9.32
29 | ATATATATATTTATATTTATATGTAAATATCAACGT [TGCATGCA_negctrl_site32] | 9.66
30 | AATATATAGAGAGATATGCACACTGTATGAATGCAC [CACACA_site2677] | 9.78
31 | TATATTAATAATAAGTGTACATATATATATATTTTT [XGTACX_site288] | 9.72
32 | TATTTTTTCTTTCATTGTACTTTTTTTTTGTTTTGT [XGTACX_site4081] | 9.97
33 | AATGAGAAATATAATTGTACATATATTTATTTTCAT [XGTACX_site3669] | 9.54
34 | ATTTGTAAAAAATTCATACACACGTCTTATTTTTAA [CACACA_site1390] | 9.68
35 | AATACTATTATTATTGCACACTTATTATCCCTCGGA [CACACA_site4262] | 9.71
36 | TATCCATTTCTTTATGTGCACATTAAATATATTTGT | 9.94
37 | TATAAAAATATTTCTACACACATTAATATATATATA [CACACA_site1150] | 9.64
38 | CAAAAGGATAGGCACACACACACACCCATATATATA [CACACA_site2199] | 11.1
39 | AATATGTCTATATTTTTTATATGGAAATATTATAAA [GTGCAC_negctrl_site700] | 9.28
40 | TTTTTTTTTTTTTTTTTTTTTTTATCTATTATTTAT [XGTACX_negctrl_site496] | 8.85
41 | AAAAAATTAATATTGACACACATTTTTAAGAATAAT [CACACA_site239] | 9.7
42 | AAACAAAAAATTTAAAGTACAAAAATTATGATTGTT [XGTACX_site465] | 9.62
43 | AATATATAAATTAATACATGCACATATAGAAAGGGA [TGCATGCA_site472] | 10.3
44 | CTTTTTACTTAATACACACACACACTAGAAAAAAAA [CACACA_site4680] | 10.7

Row | Sequence | gcPBM binding intensity (ln)
45 | TAAAAGGAAAAAAAAGCACACACAATATTACTTGAA [CACACA_site8831] | 10.4
46 | TATCAAAATTAGTATACACACAAAATTATTCAAATA [CACACA_site2232] | 9.69
47 | TATACATATAAATTGTGTACACATATATATATATTT [XGTACX_site7875] | 9.8
48 | AACCAATATGTGTATACACACATAAATATAAATATA [CACACA_site7729] | 10
49 | AAAAAAAAAAAAAGGTGTACATAAGTAAATTCATAT [XGTACX_site4206] | 9.88
50 | CTTTTCTTTTTTTTTTGTACATAAAATTATTCCTTA [XGTACX_site3924] | 9.75
51 | AATATAGTCACACATACACACATATAGATTTATATA [CACACA_site7223] | 10
52 | TTTTGTTGCTCTTTTTTTTTTTTTTTTAACTGTATG [CACACA_negctrl_site1072] | 9.67
53 | TTATTTTGTTTTAAAAGTACACACTTTTAATTAGAT [XGTACX_site2271] | 9.71
54 | ATAATAAGCAAACACACACACACAAAAAAAAAAAAA [CACACA_site720] | 11.6
55 | TATATAAACACGTACACACACATATAGGTATTTATA [CACACA_site7615] | 10.8
56 | ACAGAATACATATACACACATACAAAAAAGTGCATA [CACACA_site987] | 10.3
57 | TCATACTGTATATTTTGTACTTATATATATATTATA [XGTACX_site6136] | 10
58 | CATTATGTTGTAAATGCACACATACATATACACAGT [CACACA_site8990] | 10
59 | TTTGCTTCCAAAAGTCGTACAAAAAATATTAAATAT [XGTACX_site4171] | 9.3
60 | TACAAAAGCGATACGGCACACATTTCCTGTTTAAAT [CACACA_site2746] | 9.82
61 | AAAAGATTGCTCCGCATGCACCTCCAAAAGTTCCTT [GTGCAC_site9993] | 9.48
62 | ATGAATGTCCCAAGATGTACAATTATATATAACACA [XGTACX_site4702] | 9.58
63 | AAATCCTTATTTTTTTGTACGTAATATTTTATATGG [XGTACX_site1530] | 9.62
64 | TAATAAATAAGACACACACACATATATATATATTAT [CACACA_site1389] | 10.3
65 | GAGTAAAAATTAAAATGTACATATTATATATATTTA [XGTACX_site1319] | 9.58
66 | AGTAAATAACACAAATATGAATGAAAAAAAAAATAT [GTGCAC_negctrl_site235] | 10.1

Row | Sequence | gcPBM binding intensity (ln)
67 | CAACTTATTAAAAGTCGTACAAATGGGAAGAAGGAA [XGTACX_site6325] | 9.66
68 | TGTGCGGAAATAAGTGCACACATAGATATCTGTATT [CACACA_site5935] | 9.8
69 | ATATATATATAGTACGCACACATAGTTGTACATTAA [CACACA_site2787] | 9.95
70 | CGTATGAGTAAATACACACCCACGTATATATATAAA [CACACA_site5728] | 9.66
71 | ATAATTATTAATATAGTGCATTGGCATAATAATATA [GTGCAC_site9810] | 9.7
72 | ATATTAATATAATGTGCATGTTCAATGATCTTTTTA [TGCATGCA_site22] | 9.6
73 | TTATACAACAAGAAAATTATAAAATGTAACATATAT [GTGCAC_negctrl_site406] | 9.57
74 | TATTTTTTAACACAACGTACATATAAAAAATATTTA [XGTACX_site6025] | 9.43
75 | TACAAATATATATGCACACACATATATGTATATGTG [CACACA_site3075] | 10
76 | TTAGATATAATATATACACACCAACGAACGAAGAAA [CACACA_site4763] | 9.97
77 | AAAAAAATTTATTAAAGTACTAGATAATCATATAAA [XGTACX_site1455] | 9.6
78 | TTCTTTTCTCTTTTAATCATATTATATAAATGAATA [CACACA_negctrl_site820] | 9.53
79 | ATATATAAAAAAGCTAGTACACAAAAATATATAATG [XGTACX_site3001] | 10.2
80 | AAAAATTTTATATTCACACACATATTTATATTTATA [CACACA_site6439] | 9.96
81 | AGAATAATATAATAAAGTACAAACCTATCTAACTAC [XGTACX_site5477] | 9.92
82 | ATTATAAATAAATATTGTACTTATATGATCTATTTG [XGTACX_site3820] | 9.53
83 | CCTTTCACATATAATACATGCATTATTATATATGAA [TGCATGCA_site287] | 9.49
84 | GGATATATTATATGTACACACACATATAAGGGATTA [CACACA_site7884] | 9.99
85 | ATTGCATTTGTAGATAATACAATATGGATTGTTATA [CACACA_negctrl_site1749] | 9.44
86 | TCACAAATGTATTATACACACAAGTTTTCTTTAATA [CACACA_site4107] | 9.71
87 | ATATTAACTTTTATTACACACTCTCAACTTTTATTT [CACACA_site6176] | 10.1
88 | ATTTATTTATTTTCATGTACATATGTAAATCAATAA [XGTACX_site3886] | 9.64

Reference: the supplement of paper PMC11417369
